Data as given in patent US8415399B2, “Retrovirus-infection inhibitor” (Nagasaki University, priority 2006, dated 2013).

Key:
Assay in all cases: Cytotoxicity test: cell count, cell proliferation
HeLa/CD4 cell = type: cell-based; conditions: Homo sapiens, 48 h, 2 days culture, read-out: concentration to suppress cell proliferation by 50%
NP2/CD4/X4 cell = conditions: Homo sapiens, 48 h, read-out: concentration to suppress cell proliferation by 50%
TE671/CD4 cell = type: cell-based; conditions: Homo sapiens, TE-671, 48 h, 2 days culture, read-out: concentration to suppress cell proliferation by 50%

SMILES | IC50 (HeLa/CD4 cell) | IC50 (NP2/CD4/X4 cell) | IC50 (TE671/CD4 cell)
CC(C)=CCC/C(C)=C/CC/C(C)=C/C=C/C(C)=C/C(=O)O [NIK-333] | 7 µM | 7 µM | 8 µM
CC1=C(/C=C/C(C)=C/C=C/C(C)=C/C(=O)Nc2ccc(O)cc2)C(C)(C)CCC1 [fenretinide, 4-Hydroxyphenylretinoid, reference compound] | ≥ 2 µM | 0.7 µM | 2 µM
